# From the supplement of paper PMC8728848
# Some of the results follow.
# B1: UDA (Urtica dioica), P11218 (protein)
# chain: MMMRFLSAVVIMSSAMAVGLVSAQRCGSQGGGGTCPALWCCSIWGWCGDSEPYCGRTCENKCWSGERSDHRCGAAVGNPPCGQDRCCSVHGWCGGGNDYCSGSKCQYRCSSSVRGPRVALSGNSTANSIGNVVVTEPLFDQMFSHRKDCPSQGFYSYHSFLVAAESFPAFGTIGDVATRKREVAAFLAHISQATSGERSDVENPHAWGLCHINTTTVTENDFCTSSDWPCAAGKKYSPRGPIQLTHNFNYGLAGQAIGEDLIQNPDLVEKDPIISFKTALWFWMSQHDNKPSCHDIVLNANSAANRIPNKGVIGNIISRAFGHDDFAVRSSSIGFYKRYCDMLGVSYGHDLKYWFDNTPSSEFQRIQMRVAA
# Legend:
# Assay in all cases: glycan array binding signal (z-score within array); higher = stronger binding
# Conditions in all cases: glycan notation: IUPAC condensed, linker removed
# [1] = biological target: Neu5Ac(a2-3)Gal(b1-4)GlcNAc(b1-3)Gal(b1-4)GlcNAc(b1-6)[Gal(b1-3)]GalNAc
# In short: (§1)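 Columns mapping to the same glycan were averaged after glycan names were converted to IUPAC-condensed notation. The data come from 3228 arrays in the Consortium for Functional Glycomics database, limited to those with an available protein sequence. Binding is reported as a within-array Z-score averaged across arrays of one protein sequence and across linkers.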
# [2] = biological target: Neu5Ac(a2-3)Gal(b1-4)GlcNAc(b1-3)Gal(b1-4)[Fuc(a1-3)]GlcNAc
# In short: as §1
# [3] = biological target: Neu5Ac(a2-3)Gal(b1-4)GlcNAc(b1-3)GalNAc
# In short: as §1
# [4] = biological target: Neu5Ac(a2-3)Gal(b1-4)GlcNAc(b1-3)[Neu5Ac(a2-3)Gal(b1-4)GlcNAc(b1-6)]GalNAc
# In short: as §1
# [5] = biological target: Neu5Ac(a2-3)Gal(b1-4)GlcNAc(b1-6)GalNAc
# In short: as §1
# [6] = biological target: Neu5Ac(a2-3)Gal(b1-4)GlcNAc(b1-6)[Gal(b1-3)]GalNAc
# In short: as §1
# [7] = biological target: Neu5Ac(a2-3)Gal(b1-4)GlcNAc(b1-6)[Neu5Ac(a2-3)Gal(b1-3)]GalNAc
# In short: as §1
# [8] = biological target: Neu5Ac(a2-3)Gal(b1-4)GlcNAc6S
# In short: as §1
# [9] = biological target: Neu5Ac(a2-3)Gal(b1-4)[Fuc(a1-3)]GlcNAc
# In short: as §1
# [10] = biological target: Neu5Ac(a2-3)Gal(b1-4)[Fuc(a1-3)]GlcNAc(b1-2)Man
# In short: as §1
# [11] = biological target: Neu5Ac(a2-3)Gal(b1-4)[Fuc(a1-3)]GlcNAc(b1-3)Gal
# In short: as §1
# [12] = biological target: Neu5Ac(a2-3)Gal(b1-4)[Fuc(a1-3)]GlcNAc(b1-3)Gal(b1-4)GlcNAc
# In short: as §1
# [13] = biological target: Neu5Ac(a2-3)Gal(b1-4)[Fuc(a1-3)]GlcNAc(b1-3)Gal(b1-4)[Fuc(a1-3)]GlcNAc(b1-3)Gal(b1-4)[Fuc(a1-3)]GlcNAc
# In short: as §1
# [14] = biological target: Neu5Ac(a2-3)Gal(b1-4)[Fuc(a1-3)]GlcNAc(b1-3)GalNAc
# In short: as §1
# [15] = biological target: Neu5Ac(a2-3)Gal(b1-4)[Fuc(a1-3)]GlcNAc(b1-6)[Gal(b1-3)]GalNAc
# In short: as §1
# [16] = biological target: Neu5Ac(a2-3)Gal(b1-4)[Fuc(a1-3)]GlcNAc(b1-6)[Neu5Ac(a2-3)Gal(b1-3)]GalNAc
# In short: as §1
# [17] = biological target: Neu5Ac(a2-3)Gal(b1-4)[Fuc(a1-3)]GlcNAc6S
# In short: as §1
# [18] = biological target: Neu5Ac(a2-3)Gal6S(b1-4)GlcNAc
# In short: as §1
# [19] = biological target: Neu5Ac(a2-3)Gal6S(b1-4)[Fuc(a1-3)]GlcNAc
# In short: as §1
# [20] = biological target: Neu5Ac(a2-3)GalNAc
# In short: as §1
# [21] = biological target: Neu5Ac(a2-3)GalNAc(b1-4)GlcNAc
# In short: as §1
# [22] = biological target: Neu5Ac(a2-3)[GalNAc(b1-4)]Gal(b1-4)Glc
# In short: as §1
# [23] = biological target: Neu5Ac(a2-3)[GalNAc(b1-4)]Gal(b1-4)GlcNAc
# In short: as §1
# [24] = biological target: Neu5Ac(a2-3)[GalNAc(b1-4)]Gal(b1-4)GlcNAc(b1-3)GalNAc
# In short: as §1
# [25] = biological target: Neu5Ac(a2-3)[Neu5Ac(a2-6)]GalNAc
# In short: as §1
# [26] = biological target: Neu5Ac(a2-6)Gal
# In short: as §1
# [27] = biological target: Neu5Ac(a2-6)Gal(b1-3)GlcNAc(b1-3)[Gal(b1-4)GlcNAc(b1-6)]Gal(b1-4)Glc
# In short: as §1
# [28] = biological target: Neu5Ac(a2-6)Gal(b1-4)Glc
# In short: as §1
# [29] = biological target: Neu5Ac(a2-6)Gal(b1-4)GlcNAc
# In short: as §1
# [30] = biological target: Neu5Ac(a2-6)Gal(b1-4)GlcNAc(b1-2)Man
# In short: as §1
# [31] = biological target: Neu5Ac(a2-6)Gal(b1-4)GlcNAc(b1-2)Man(a1-3)Man(b1-4)GlcNAc(b1-4)GlcNAc
# In short: as §1
# [32] = biological target: Neu5Ac(a2-6)Gal(b1-4)GlcNAc(b1-2)Man(a1-3)[Gal(b1-4)GlcNAc(b1-2)Man(a1-6)]Man(b1-4)GlcNAc(b1-4)GlcNAc
# In short: as §1
binder,measurement,setting,value
B1,glycan array binding signal (z-score),[1],-0.163
same,glycan array binding signal (z-score),[2],-0.178
same,glycan array binding signal (z-score),[3],-0.179
same,glycan array binding signal (z-score),[4],-0.177
same,glycan array binding signal (z-score),[5],-0.179
same,glycan array binding signal (z-score),[6],-0.172
same,glycan array binding signal (z-score),[7],-0.172
same,glycan array binding signal (z-score),[8],0.814
same,glycan array binding signal (z-score),[9],-0.19
same,glycan array binding signal (z-score),[10],-0.182
same,glycan array binding signal (z-score),[11],-0.189
same,glycan array binding signal (z-score),[12],-0.171
same,glycan array binding signal (z-score),[13],-0.174
same,glycan array binding signal (z-score),[14],-0.165
same,glycan array binding signal (z-score),[15],-0.159
same,glycan array binding signal (z-score),[16],-0.168
same,glycan array binding signal (z-score),[17],-0.188
same,glycan array binding signal (z-score),[18],-0.19
same,glycan array binding signal (z-score),[19],-0.175
same,glycan array binding signal (z-score),[20],-0.194
same,glycan array binding signal (z-score),[21],-0.07
same,glycan array binding signal (z-score),[22],-0.189
same,glycan array binding signal (z-score),[23],-0.087
same,glycan array binding signal (z-score),[24],-0.146
same,glycan array binding signal (z-score),[25],-0.194
same,glycan array binding signal (z-score),[26],-0.189
same,glycan array binding signal (z-score),[27],-0.145
same,glycan array binding signal (z-score),[28],-0.191
same,glycan array binding signal (z-score),[29],-0.193
same,glycan array binding signal (z-score),[30],-0.182
same,glycan array binding signal (z-score),[31],1.69
same,glycan array binding signal (z-score),[32],-0.176
